Measurements from PubChem BioAssay AID1347165 (National Center for Advancing Translational Sciences (NCATS), 2019).
About 5,700 (2.6%) of roughly 220,000 compounds were called active. This list was built around the results that the source calls inconclusive (neither active nor inactive); the mix of calls is not that of the screen. The call rests on the fitted dose curve; in most records, active means well fitted inhibition curve with a large enough effect; inconclusive means small, poorly fitted or top-dose-only effect; inactive means no such curve, though single readings can be large or run the other way. A potency beside an inconclusive call is a rough fit, not a confirmed value.
Further: nearly all actives have a fitted effect of over 70% in size.
Potency means the concentration at half of the fitted maximal effect; tags describe the fitted curve by direction and shape.
Wherever activity change, negative = inhibition is given: 0% is about no effect.

The compounds below were run against Lysine-specific demethylase 5B (Homo sapiens) (UniProt Q9UGL1) (assay: Primary screen for KDM5B Histone Demethylases FDH-coupled qHTS). Details: FDH-coupled NADH fluorescence (FDH is formaldehyde dehydrogenase); activity change, negative = inhibition: at 57.7 µM (top of the series) unless noted.
Sequence of UniProt Q9UGL1 (Q9UGL1 whole entry, looked up): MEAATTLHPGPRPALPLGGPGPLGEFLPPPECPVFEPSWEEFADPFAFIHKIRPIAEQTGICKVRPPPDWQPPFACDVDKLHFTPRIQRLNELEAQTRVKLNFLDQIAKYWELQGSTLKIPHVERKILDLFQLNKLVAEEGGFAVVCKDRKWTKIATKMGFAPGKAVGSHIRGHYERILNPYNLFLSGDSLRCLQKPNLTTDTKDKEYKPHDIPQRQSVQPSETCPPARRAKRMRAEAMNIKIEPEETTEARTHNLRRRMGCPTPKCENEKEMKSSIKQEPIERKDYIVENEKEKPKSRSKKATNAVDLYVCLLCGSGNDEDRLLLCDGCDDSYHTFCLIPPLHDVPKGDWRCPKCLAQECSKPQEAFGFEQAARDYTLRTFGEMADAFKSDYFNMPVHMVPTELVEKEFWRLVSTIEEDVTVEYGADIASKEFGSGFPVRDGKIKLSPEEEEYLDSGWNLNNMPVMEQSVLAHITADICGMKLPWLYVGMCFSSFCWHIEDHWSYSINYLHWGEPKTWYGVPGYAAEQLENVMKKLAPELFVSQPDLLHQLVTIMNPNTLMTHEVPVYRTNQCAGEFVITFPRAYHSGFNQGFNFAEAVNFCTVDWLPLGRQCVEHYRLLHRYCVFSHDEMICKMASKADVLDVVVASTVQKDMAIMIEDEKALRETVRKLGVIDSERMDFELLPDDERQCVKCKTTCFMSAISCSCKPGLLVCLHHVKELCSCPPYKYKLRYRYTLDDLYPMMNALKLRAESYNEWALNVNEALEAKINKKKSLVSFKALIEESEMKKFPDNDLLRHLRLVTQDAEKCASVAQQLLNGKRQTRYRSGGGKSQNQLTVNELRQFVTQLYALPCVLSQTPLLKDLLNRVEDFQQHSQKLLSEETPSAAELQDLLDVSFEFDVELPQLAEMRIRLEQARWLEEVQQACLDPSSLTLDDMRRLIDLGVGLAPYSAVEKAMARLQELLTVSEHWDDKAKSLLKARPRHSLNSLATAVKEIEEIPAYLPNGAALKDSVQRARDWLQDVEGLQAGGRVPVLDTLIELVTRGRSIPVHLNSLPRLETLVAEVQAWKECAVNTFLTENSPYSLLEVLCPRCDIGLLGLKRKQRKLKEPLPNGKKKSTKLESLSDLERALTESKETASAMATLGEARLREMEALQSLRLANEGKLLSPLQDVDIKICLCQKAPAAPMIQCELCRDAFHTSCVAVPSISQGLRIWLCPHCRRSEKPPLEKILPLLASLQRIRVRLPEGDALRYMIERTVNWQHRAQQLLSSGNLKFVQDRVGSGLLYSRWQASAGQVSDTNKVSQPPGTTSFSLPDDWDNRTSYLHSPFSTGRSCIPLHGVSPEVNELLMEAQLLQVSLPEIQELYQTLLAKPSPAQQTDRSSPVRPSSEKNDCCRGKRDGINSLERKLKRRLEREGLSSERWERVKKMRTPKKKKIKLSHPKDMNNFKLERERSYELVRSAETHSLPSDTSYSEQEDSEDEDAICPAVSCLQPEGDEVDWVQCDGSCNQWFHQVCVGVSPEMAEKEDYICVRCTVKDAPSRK
Procedure, shortened: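 Measured: NADH fluorescence change, 30 min, RT. System: KDM5BΔAP 200 nM final, H3K4me3 peptide, α-KG, Fe(II), ascorbate, NAD⁺ plus FDH, pH 7.5 HEPES. Compounds: titrated, 10 min pre-incubation with enzyme.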
With CN1CCN(C(=O)c2nn(C)c3c2CCCC3)CC12CCNC(=O)CC2 (stereo not drawn) the Potency was inconclusive: 11.2 µM [inhibitor, partial curve, poor fit].
In the case of O=C(Nc1ccc(F)cc1)c1ccc(Cn2ccn3nc4c(c3c2=O)CCCC4)cc1, the Potency is reported as inconclusive: 25.1 µM [inhibitor, single point].
For CCOC(=O)C1CCN(c2csc3ccc(C)cc3c2=O)CC1, the Potency was inconclusive: 31.6 µM [inhibitor, partial curve, poor fit].
With COCCOc1cc(-c2noc([C@@H]3CCCN3Cc3ccc(C(=O)O)cc3)n2)ccn1 the Potency was inconclusive: 35.5 µM [inhibitor, partial curve].
With Cc1[nH][nH]c(=O)c1C(c1ccc(OCc2c(F)cccc2Cl)cc1)c1c(C)[nH][nH]c1=O the Potency was inconclusive: 5.62 µM [inhibitor, full curve, poor fit].
O=C(/C=C/c1ccc(O)cc1)c1ccc(-c2cccs2)cc1 was tested, and the Potency was inconclusive: 25.1 µM [inhibitor, single point].
In the case of O=c1oc2cc(O[C@@H]3OC[C@@H](O)[C@H](O)[C@H]3O)ccc2c2ccccc12, the Potency is reported as inconclusive: 20 µM [inhibitor, partial curve, poor fit].
For CN1CCN(c2ccc(-c3nccc4c(=O)cc(N(C)C5CCOCC5)oc34)cn2)CC1, the Potency was inconclusive: 35.5 µM [inhibitor, partial curve].
For COc1ccccc1CCNC(=O)C1CC(=O)N(c2n[nH]c3cccc(F)c23)C1 (stereo not drawn), the Potency was active: 22.4 µM.
CCOc1ccc(S(=O)(=O)N(CC)CC)cc1NC(=O)c1cccc(CN2CCCC2=O)c1 was tested, and the Potency was “inactive”.
With Cc1cccc(-c2nc3c4ccccc4n(CC(=O)Nc4cccc(F)c4)c(=O)n3n2)c1 the Potency was inconclusive: 39.8 µM [inhibitor, single point].
With CCc1ccc2c(c1)c(=O)c(S(=O)(=O)c1ccccc1)cn2CC(=O)Nc1cc(C)ccc1C the Potency was inconclusive: 39.8 µM [inhibitor, single point].
For COc1cc(NC(=O)CN(C)S(=O)(=O)c2ccc3c(c2)CCCC(=O)N3)cc(OC)c1OC, the Potency was “inactive”.
In the case of CC1CCCCN1C(C)CNC(=S)Nc1ccc(Cl)cc1Cl (stereo not drawn), the Potency is reported as inconclusive: 31.6 µM [inhibitor, partial curve, poor fit].
For CCc1cc(C(Nc2nc(C)cc(C)n2)c2ccccc2)c(NC(=O)c2ccco2)s1 (stereo not drawn), the Potency was inconclusive: 39.8 µM [inhibitor, single point].
For Cc1ccccc1-c1nc(CS(=O)(=O)CC(=O)Nc2c(C)cccc2C)c(C)o1, the Potency was inconclusive: 31.6 µM [inhibitor, single point].
COc1cc(OC)cc(OC(=O)c2cc(OC)cc(OC)c2)c1 was tested, and the Potency was “inactive”.
With CCOc1ccccc1N(C)C(=O)c1cc(S(=O)(=O)NCc2ccc(C)cc2)ccc1F the Potency was inconclusive: 5.62 µM [inhibitor, partial curve, poor fit].
For CC(=O)N1CCN(C(=O)C[C@@H]2CCNC[C@@H]2Cc2cc(-c3ccccc3)on2)CC1, the Potency was inconclusive: 31.6 µM [inhibitor, single point].
CCc1nn2c(=O)cc(COC(=O)c3cccc(NC(=O)COc4ccccc4F)c3)nc2s1 was tested, and the Potency was inconclusive: 28.2 µM [inhibitor, partial curve, poor fit].
With CC(C1CC1)n1nccc1NC(=O)c1nn(C)c(=O)c2ccccc12 (stereo not drawn) the Potency was “inactive”.
Cc1nc(-c2ccccc2Cl)sc1C(=O)N[C@H](CC(C)C)C(=O)O was tested, and the Potency was “inactive”.
For O=C(NC1CC1)c1ccc(NC(=O)c2cc(-c3ccco3)nc3ccccc23)cc1, the Potency was inconclusive: 20 µM [inhibitor, partial curve, poor fit].
In the case of CCCN(C)c1nccnc1OC1CCN(C(=O)c2ccncc2)C1 (stereo not drawn), the Potency is reported as “inactive”.
For Cc1ncc2c(N3CC4CCC(C3)N4CC(F)(F)F)nc3ccccc3n12, the Potency was inconclusive: 31.6 µM [inhibitor, full curve].
For O=c1[nH]c(=O)n(Cc2ccccc2)c2nc(-c3cccc(F)c3)n(CC3CCCO3)c12 (stereo not drawn), the Potency was “inactive”.
With O=C(c1ccc2cc[nH]c2n1)N1CCOCC1 the Potency was active: 126 µM.
For COc1ccc(-c2cc(C(C)=O)c(C)n2CCC(=O)Nc2cccc(C)c2C)cc1, the Potency was inconclusive: 25.1 µM [inhibitor, single point].
In the case of O=C(Cn1c2ncccc2c(=O)n1-c1ccccc1)Nc1cccc(C(F)(F)F)c1, the Potency is reported as inconclusive: 31.6 µM [inhibitor, partial curve, poor fit].
For COc1ccc2cc(C3Nc4ccccc4C(=O)N3C3CC3)ccc2c1 (stereo not drawn), the Potency was inconclusive: 31.6 µM [inhibitor, partial curve, poor fit].
O=C(NCc1cccnc1)C1CCN(C(=O)N2CC3CC(C2)[C@H]2CCCC(=O)N2C3)CC1 (stereo partly drawn) was tested, and the Potency was “inactive”.
For O=C(NCc1ccccc1)N[C@H]1CO[C@H]2[C@@H]1OC[C@@H]2n1cc(-c2ccccn2)nn1, the Potency was “inactive”.
In the case of COc1cccc(CNC(=O)CCCn2c(=O)c3cccn3c3ccc(F)cc32)c1OC, the Potency is reported as inconclusive: 44.7 µM [inhibitor, single point].
With COc1cccc(-c2nc(S(=O)(=O)c3ccc(C)cc3)c(NCc3ccccc3)o2)c1 the Potency was inconclusive: 35.5 µM [inhibitor, partial curve, poor fit].
In the case of O=C1CC(c2noc(-c3nccc4ccccc34)n2)CN1C1CCCCC1 (stereo not drawn), the Potency is reported as active: 22.4 µM.
With Nc1nc(O)c(Sc2ccccc2[N+](=O)[O-])c(=O)[nH]1 the Potency was inconclusive: 22.4 µM [inhibitor, partial curve, poor fit].
COc1ccc(S(=O)(=O)N[C@H]2C[C@@H](c3nc(-c4ccc5c(c4)OCO5)no3)N(C)C2)cc1 was tested, and the Potency was inconclusive: 39.8 µM [inhibitor, single point].
CN(C)S(=O)(=O)N1CCc2c(nc3cc(-c4ccccc4)[nH]n3c2=O)C1 was tested, and the Potency was active: 22.4 µM.
For CCN1CCN(c2cc(C)c3cc(NC(=O)c4cc(OC)c(OC)c(OC)c4)ccc3n2)CC1, the Potency was inconclusive: 2.82 µM [inhibitor, partial curve, poor fit].
CCOc1ccc(-c2nc(CSCC(=O)NCCc3ccccc3)c(C)o2)cc1 was tested, and the Potency was inconclusive: 22.4 µM [inhibitor, single point].
In the case of Clc1cccc(N2CCN(c3nc4ccccc4c4nc(-c5ccccc5)nn34)CC2)c1, the activity change, negative = inhibition is reported as inconclusive: -42.6% [inhibitor].
In the case of Cc1ccc(C)c(N2CC(C(=O)OCC(=O)c3ccc(Br)cc3)CC2=O)c1 (stereo not drawn), the Potency is reported as “inactive”.
O=C(c1cc2ccccc2oc1=O)N(Cc1cccc(Br)c1)C1CCS(=O)(=O)C1 (stereo not drawn) was tested, and the Potency was inconclusive: 35.5 µM [inhibitor, partial curve, poor fit].
N#Cc1ccc(CN2CCn3c(nn(-c4cccc(Cl)c4)c3=O)C2)cc1 was tested, and the Potency was inconclusive: 56.2 µM [inhibitor, partial curve, poor fit].
For COC(=O)c1cc2oc(C)cc2n1CC(=O)Nc1ccc(OC)c(OC)c1, the Potency was inconclusive: 15.8 µM [inhibitor, partial curve, poor fit].
With O=C(NCCn1cccc1-c1nc(-c2ccc3c(c2)OCO3)no1)c1ccc2c(c1)OCO2 the Potency was inconclusive: 35.5 µM [inhibitor, single point].
Cc1ccccc1CC(=O)NCc1nnc2ccc(-c3ccccc3)nn12 was tested, and the Potency was active: 31.6 µM.
In the case of COc1ccccc1-c1nc(C#N)c(NCc2ccc(Cl)cc2)o1, the Potency is reported as inconclusive: 14.1 µM [inhibitor, partial curve, poor fit].
With COc1cc(C#N)ccc1OCc1ccc(F)cc1Cl the Potency was “inactive”.
COc1ccc(S(=O)(=O)NC2CCCCC2)c2cccnc12 was tested, and the Potency was inconclusive: 25.1 µM [inhibitor, partial curve, poor fit].
For O=C(O)CCn1cc(/C=C/C(=O)c2ccc(Cl)cc2)c(-c2cccc(Br)c2)n1, the Potency was inconclusive: 39.8 µM [inhibitor, partial curve, poor fit].
CCCCN(C)Cc1cc(=O)oc2cc(-c3ccccc3)c(O)cc12 was tested, and the Potency was inconclusive: 39.8 µM [inhibitor, single point].
With Cn1c(C(=O)NCCc2ccccn2)nc2nc(-c3ccccc3)c(Cl)cc21 the Potency was active: 35.5 µM.
In the case of COc1ccc(C2Cn3nnc(C(=O)N4CCN(C(=O)c5sccc5C)CC4)c3CO2)cc1 (stereo not drawn), the Potency is reported as “inactive”.
CN(C)c1ccc(-c2nnnn2[C@H]2CO[C@H]3[C@@H]2OC[C@H]3OCc2ccccc2)cc1 was tested, and the Potency was active: 31.6 µM.
For Cc1nc(C)n(CCNS(=O)(=O)c2ccccc2)n1, the Potency was “inactive”.
In the case of CC(=O)Nc1c(C)nn(-c2ccccc2)c1N1CCC(C(=O)Nc2ccc(Cl)cc2C)CC1, the Potency is reported as inconclusive: 3.55 µM [inhibitor, partial curve, poor fit].
In the case of Cc1ccc(-c2nc3ccccc3[nH]2)cc1NC(=O)COc1ccc(Cl)cc1Cl, the Potency is reported as inconclusive: 2.24 µM [inhibitor, full curve, poor fit].
CN1C(=O)C2(CCN(Cc3cccn3C)C2)c2ccccc21 (stereo not drawn) was tested, and the Potency was inconclusive: 79.4 µM [inhibitor, partial curve].
With CN1c2cc(C(=O)Nc3ccc4c(c3)OCCO4)ccc2C(=O)N2CCCCCC21 (stereo not drawn) the Potency was inconclusive: 25.1 µM [inhibitor, partial curve, poor fit].
In the case of Cc1nc(-c2ccc(Cl)cc2Cl)sc1C(=O)N1CCC(C(=O)O)CC1, the Potency is reported as “inactive”.
For CCc1nc(N2CCc3ccccc3C2)ncc1C(=O)O, the Potency was inconclusive: 31.6 µM [inhibitor, single point].
In the case of COc1ccc(-c2cc(C(=O)NCc3c(C)cc(C)[nH]c3=O)c3c(c2)N(C(C)C)CCO3)cc1, the Potency is reported as active: 31.6 µM.
